Hit rate of the full screen: of about 48,000 compounds, about 450 (0.94%) were called active. Another 19% or so got no clear call; they are omitted. Calls follow the shape of the dose curve; as a rule, active = well fitted inhibition curve with a large enough effect; inconclusive = small, poorly fitted or top-dose-only effect; inactive = no such curve, though single readings can be large or run the other way. Some of the results follow.

The nature of this experiment: Primary qHTS for Identification of Small Molecule Inhibitors of Huntingtin Promoter Activity. Also: nearly all actives have a fitted effect of over 50% in size. Conditions: HEK293 HTT promoter firefly luciferase reporter (activity 0% = vehicle and -100% = no light), 24 h; series mostly up to 57.5 µM; activity change, negative = inhibition: at the top concentration. Put shortly:
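HEK293 Fluc reporter, 2,500 cells/well, 24 h pre-culture; cpds up to 57.5 uM final, 24 h 37 degrees C; Dual-Glo, 10 min RT; normalized vehicle = 0%, zero RLU = -100%.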
For orientation: qHTS replaces the single test concentration by a dilution series.
For the compound `CC1=C(C(=O)Nc2ccccc2)C(c2ccccc2C)n2nc(SCC(=O)c3ccc(C)cc3)nc2N1` (centres undefined), the “activity change, negative = inhibition” value is inactive: 11%. Consider `Cc1[nH]n(-c2ccccc2)c(=O)c1C(c1cc(Cl)ccc1O)c1c(C)[nH]n(-c2ccccc2)c1=O`, for which the “activity change, negative = inhibition” value is inactive: -3.57%.

Take `CCOC(=O)c1ccccc1NC(=O)N1CCN(Cc2cc(=O)n3nc(-c4ccccc4)sc3n2)CC1`: the “activity change, negative = inhibition” value is inactive: -4.56%. As for `COC(=O)c1c(-c2cccs2)csc1NC(=O)c1cccc(Cl)c1`, the figure is inactive: 53%. As for `COC(=O)c1c(-c2cccs2)csc1NC(=O)c1ccc(Br)cc1`, the figure is inactive: 45.8%; as for `Cc1cccc(NC(=O)CSc2nc(-c3cccs3)cc(C(F)(F)F)c2C#N)c1C`, inactive: -14.5%. The same measure for `CCc1ccc(NC(=O)CCS(=O)(=O)c2cc3c(cc2Cl)NC(=O)CO3)cc1`: inactive: -5.91%; for `CCN(c1ccccc1)S(=O)(=O)c1cc(Br)cc2c1N(C(=O)C1CC1)CC2`: inactive: -16.4%.

For the compound `Cc1ccc(-c2cc(C(=O)NCc3cnn(C)c3C)c3ccccc3n2)cc1C`, the “activity change, negative = inhibition” value is inactive: 30.2%. As for `Cc1cccc(-c2c3c(=O)n(C)c(=O)n(C)c3c3c(C)nc4ccccc4n23)c1`, the figure is inactive: -9.55% [at 11.5 µM]; as for `N#Cc1ccc(S(=O)(=O)N2CCC(Oc3cccc(C(F)(F)F)c3)CC2)cc1`, inactive: -26.7%. As for `COc1cc(OC)c(OC)cc1CN1CCc2nc(Nc3ccc4c(c3)OCCO4)ncc2C1`, the “activity change, negative = inhibition” value is inactive: -19.4%. The same measure for `CCCNC(=O)C1=CC(c2ccc3c(c2)OCO3)=NS(=O)(=O)N1C`: inactive: -15.3%; for `COc1ccc(CNC(=O)C(=O)Nc2c3c(nn2-c2ccccc2)CSC3)cc1`: inactive: -16.5%. As for `Cn1c(=O)c2c(nc(N3CCOCC3)n2Cc2cccc(Br)c2)n(C)c1=O`, the figure is inactive: -17.9%; as for `Cc1ccccc1CNC(=O)Cc1ccc(NC(=O)N2CCCCc3ccccc32)cc1`, inactive: -24.2%. As for `Cc1nn2c(-c3ccco3)ccnc2c1-c1ccc(Br)cc1`, the figure is inactive: 23%; as for `CCOc1ccc(C(=O)c2cn(CC(=O)Nc3cccc(OC)c3)c3cc4c(cc3c2=O)OCCO4)cc1`, inactive: -17.3%; as for `Cc1c(C(=O)N2CCCCC2)c(S(=O)(=O)NCc2ccc(N(C)C)cc2)c(C)n1C`, inactive: 10.3%. On to `Cc1ccc(-c2cc(N)n(-c3ccc(C)cc3)n2)cc1`, for which the “activity change, negative = inhibition” value is inactive: 114%. As for `CC(=O)OC[C@H]1O[C@@](COC(C)=O)(O[C@H]2O[C@H](COC(C)=O)[C@@H](OC(C)=O)[C@H](OC(C)=O)[C@H]2OC(C)=O)[C@@H](OC(C)=O)[C@@H]1OC(C)=O`, the “activity change, negative = inhibition” value was inactive: -7.6%. As for `COc1ccccc1CNC(=O)C(C)n1ccc2cc(S(=O)(=O)N3CCCC3)ccc21` (centres undefined), the figure is inactive: -24.1%; as for `COc1ccc(CNC(=O)c2ccc3nc(CCc4ccccc4)oc3c2)cc1`, inactive: 1.32%. As for `CCOc1ccc(NC(=O)C2CCN(c3nnc(C)c4c(C)n(-c5ccccc5)nc34)CC2)cc1`, the figure is inactive: -8.91%.

The values are drawn from PubChem BioAssay AID1508623 (National Center for Advancing Translational Sciences (NCATS), 2021).
